# “And” between values parts separate entries of the source, which are not always exact repeats. Identical values can stand only once.
# B1: ΔN6-β2m, truncated β2-microglobulin variant lacking six N-terminal residues (domain or fragment)
# chain: not shown
# notes: β2-microglobulin lacking the six N-terminal residues of the mature protein (11.1-kDa monomer); also called truncated β2m isoform; truncated variant; source: E. coli, purified (ion exchange chromatography, size exclusion chromatography), lyophilized
# Columns and labels:
# [1] = molecular target: the molecule itself; assay: native MS; ion mobility MS, 30 μM protein, 100 mM ammonium acetate, pH 5 (data not shown)
# [2] = molecular target: the molecule itself; assay: native MS; ion mobility MS, 10 μM monomer concentration, 100 mM ammonium acetate, pH 5
# [3] = molecular target: the molecule itself; assay: cross-linking; BS3-d0/d4 1:1, 25 °C, 1 h; gel electrophoresis (NuPAGE); bands digested in-gel with trypsin; LC-MS/MS
protein,measurement,setting,value
B1,stoichiometry N,[1],> 5
same,stoichiometry N,[2],2
same,stoichiometry N,[3],3 and 4

# From paper PMC4813486, “Uncovering the Early Assembly Mechanism for Amyloidogenic β2-Microglobulin Using Cross-linking and Native Mass Spectrometry*” (The Journal of Biological Chemistry, 2015)
